Measured values as given in US20210261654A1 (BEIJING BEYOND BIOTECHNOLOGY, published 2021).

B1: fusion protein BY19.6 (Fc fusion)
light: DIVMTQTPLSLSVTPGQPASISCRSSRSLVHSRGNTYLHWYLQKPGQSPQLLIYKVSNRFIGVPDRFSGSGSGTDFTLKISRVEAEDVGVYYCSQSTHLPFTFGQGTKVEIKRTVAAPSVFIFPPSDEQLKSGTASVVCLLNNFYPREAKVQWKVDNALQSGNSQESVTEQDSKDSTYSLSSTLTLSKADYEKHKVYACEVTHQGLSSPVTKSFNRGEC
chain: LPAQVAFTPYAPEPGSTCRLREYYDQTAQMCCSKCSPGQHAKVFCTKTSDTVCDSCEDSTYTQLWNWVPECLSCGSRCSSDQVETQACTREQNRICTCRPGWYCALSKQEGCRLCAPLRKCRPGFGVARPGTETSDVVCKPCAPGTFSNTTSSTDICRPHQIDKRV[left out - human IgG4 Fc with S228P (EU numbers)]GGGSGGGGSGGGGSQVQLVQSGAEVKKPGSSVKVSCKASGYSFTDYHIHWVRQAPGQGLEWMGVINPMYGTTDYNQRFKGRVTITADESTSTAYMELSSLRSEDTAVYYCARYDYFTGTGVYWGQGTLVTVSSASTKGPSVFPLAPCSRSTSESTAALGCLVKDYFPEPVTVSWNSGALTSGVHTFPAVLQSSGLYSLSSVVTVPSSSLGTKTYTCNVDHKPSNTKVDKRVES
notes: also called BY19.6(κ, IgG1)
B2: fusion protein BY19.7 (Fc fusion)
chain: LPAQVAFTPYAPEPGSTCRLREYYDQTAQMCCSKCSPGQHAKVFCTKTSDTVCDSCEDSTYTQLWNWVPECLSCGSRCSSDQVETQACTREQNRICTCRPGWYCALSKQEGCRLCAPLRKCRPGFGVARPGTETSDVVCKPCAPGTFSNTTSSTDICRPHQIDKRV[left out - human IgG4 Fc with S228P (EU numbers)]GGGSGGGGSGGGGSDIVMTQTPLSLSVTPGQPASISCRSSRSLVHSRGNTYLHWYLQKPGQSPQLLIYKVSNRFIGVPDRFSGSGSGTDFTLKISRVEAEDVGVYYCSQSTHLPFTFGQGTKVEIKRTVAAPSVFIFPPSDEQLKSGTASVVCLLNNFYPREAKVQWKVDNALQSGNSQESVTEQDSKDSTYSLSSTLTLSKADYEKHKVYACEVTHQGLSSPVTKSFNRGEC
heavy: QVQLVQSGAEVKKPGSSVKVSCKASGYSFTDYHIHWVRQAPGQGLEWMGVINPMYGTTDYNQRFKGRVTITADESTSTAYMELSSLRSEDTAVYYCARYDYFTGTGVYWGQGTLVTVSSASTKGPSVFPLAPCSRSTSESTAALGCLVKDYFPEPVTVSWNSGALTSGVHTFPAVLQSSGLYSLSSVVTVPSSSLGTKTYTCNVDHKPSNTKVDKRVES
notes: also called BY19.7(κ, IgG1)
B3: fusion protein BY19.3 (other)
light: B1 light
heavy: QVQLVQSGAEVKKPGSSVKVSCKASGYSFTDYHIHWVRQAPGQGLEWMGVINPMYGTTDYNQRFKGRVTITADESTSTAYMELSSLRSEDTAVYYCARYDYFTGTGVYWGQGTLVTVSSASTKGPSVFPLAPCSRSTSESTAALGCLVKDYFPEPVTVSWNSGALTSGVHTFPAVLQSSGLYSLSSVVTVPSSSLGTKTYTCNVDHKPSNTKVDKRV[left out - human IgG4 Fc with S228P (EU numbers)]GGGSGGGGSGGGGSLPAQVAFTPYAPEPGSTCRLREYYDQTAQMCCSKCSPGQHAKVFCTKTSDTVCDSCEDSTYTQLWNWVPECLSCGSRCSSDQVETQACTREQNRICTCRPGWYCALSKQEGCRLCAPLRKCRPGFGVARPGTETSDVVCKPCAPGTFSNTTSSTDICRPHQI
notes: Expressed in 293F cells; also called BY19.3 protein; BY19.3(κ, IgG4)

The binders below were run against T1, Recombinant human TNF-α (Sino Biological Inc., catalog number: 10602-HNAE) (human, UniProt P01375 part only) (assay: SPR (Biacore T100, 25 C); protein captured by anti-IgG on CM5 chip, antigen injected 7-600 nM).
T1 construct: Bought protein; also called recombinant human TNF-α protein
T1 sequence (P01375 77-233 limits assumed): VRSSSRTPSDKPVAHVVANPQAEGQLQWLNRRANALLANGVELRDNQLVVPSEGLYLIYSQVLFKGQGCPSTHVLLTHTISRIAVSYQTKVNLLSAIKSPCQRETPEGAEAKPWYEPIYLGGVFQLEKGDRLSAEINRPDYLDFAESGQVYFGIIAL
B1 showed a Kd of 7.27 pM.
Binder B2 has a Kd of 7.25 pM.
Binder B3 has a Kd of 47.8 pM.
